From the supplement of paper PMC10126150
Sequences with one replicate were seen in a single cluster, so their values are uncertain.

tested on: ATP; assay: switch fluorescence ratio, 500 uM ATP over buffer (Cy3 cluster intensity, sum of 5 cycles each) (fold (ratio)); higher = stronger signal-on switching upon ATP binding; sequences stand for … in TCGTCGGCAGCGTCAGATGTGTATAAGAGACAGTTTTTTTTTTTTTTTTTTTTTTTTT…TC; conditions: aptamer strand: ATP DNA aptamer (quencher-CACCTGGGGGAGTATTGCGGAGGAAGG + anchor), 100 nM annealed; ATP concentration: 500 uM; one replicate
Procedure, shortened: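 Switching-strand clusters labelled with Cy3 on a modified Illumina MiSeq flow-cell were annealed to 100 nM quencher-labelled ATP aptamer, imaged in selection buffer, and re-imaged after 15 min with 500 uM ATP at 22 °C. This was done over five cycles with NaOH stripping and re-annealing in between. The fluorescence ratio is summed target-cycle over summed buffer-cycle Cy3 intensity per cluster, averaged per switch-domain sequence, excluding clusters outside 100-1000 RFU.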
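Further: ATP exposure 15 min at 22 °C before imaging.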

Sequence | switch fluorescence ratio
CCAAGTCAAC | 1.46
CAGGGATCGC | 0.97
TTAATAGC | 1.06
TGACTGTCTT | 0.997
TATGTATGCT | 0.964
GCCATGCCCG | 1.04
GAGAACAGT | 0.981
GATTGCGATG | 0.992
GGTGGTCTTG | 1.02
CTCCAACGTG | 1.15
TATCAATCCT | 1.07
GAAAGATTTA | 0.99
TGTACGAATG | 0.996
TGATGGTTGA | 0.991
ACACTGCACC | 1.43
AACCGTCCGA | 2.54
ATGATGGTGA | 1.01
ATTAACGCTT | 1.03
TGGGTGAGCC | 1.02
GTTACGGCGC | 1.09
AATCTACGGT | 0.989
TTTAGCCCGT | 0.943
CACTTCGCCT | 1.22
GATTCATTGA | 1.01
TAAAGGGCTA | 1
ACCCTCCGT | 2.12

Sequence | switch fluorescence ratio
GTAACAGGGG | 1.14
TCAGTCCGCT | 1.45
ACCTTACTCT | 2.87
TAGATCGACA | 1.03
CTTACGCGTG | 1.03
TGTGTAATCG | 0.99
TCTATTTGAA | 0.997
GTAGCCAATA | 2.2
AAAGATCGGT | 1.01
TTTCAGCAGT | 2.55
ATGCAGTTCA | 0.981
GATTCAGGTT | 0.999
GCCGGATTTG | 0.986
GCTACTTGGA | 1.01
CGTGCTAAAA | 0.972
GGCGCTGTAC | 1.75
ACCCTGACGG | 1.28
TCCTCAGGGA | 2.08
TGGGTGTAGT | 1.05
TAGCTTTCGC | 0.985
GTACTCCATC | 1.08
CGAGGGTTTT | 1
TTCCATACCT | 1.32
TCTGGCTTGC | 1.01
TCGGACTCTG | 0.959
TGAGAAGGGT | 0.982

Sequence | switch fluorescence ratio
AAAGCCTCGG | 1
TGATAGTATT | 1.04
TAGAGCGTTT | 0.985
CGCGAAATTT | 0.995
CAATGACTGA | 1.02
ATGCGTTTGC | 0.983
TCATTCGCAC | 4.01
AATCATTCTG | 0.971
ACCCAGGACG | 1.33
ACGTGATGCA | 1.02
AGGCTGATAT | 1.03
CGAGTTCATG | 1.01
GGATTCTTTG | 1.01
TCTTCTATTG | 1.01
AGGATAAAGC | 0.999
TGCCGTCTTT | 1.03
CCGCGGCGGT | 1.01
GGGTGTAACA | 0.995
TAAAATGGAT | 0.979
CATATTTGAG | 1.02
GTGACCATTC | 1.01
GTCGCCGGTC | 0.965
GGAGTATAAT | 0.968
TGCTGACGGC | 0.994
AACGCCTATC | 1.06
